Laboratory results as given in PubChem BioAssay AID1794842 (National Center for Advancing Translational Sciences (NCATS), 2023).
The campaign covered roughly 2,800 compounds. Fewer than 10 were called active. Calls come from the whole dose curve; as a rule, active = well fitted curve in the direction sought with a large enough effect; inconclusive = small, poorly fitted or top-dose-only effect, or another doubt; inactive = no such curve, though single readings can be large or run the other way. The list shows a part of the results.

molecular target: Metallo-beta-lactamase type 2 (Klebsiella pneumoniae) (UniProt C7C422); assay: qHTS to identify inhibitors of the New Delhi Metallo-beta-lactamase (NDM): Meropenem screen against the machine-based learning selections.; note: % of control where 0% means no effect; details: Purified NDM-1, meropenem hydrolysis, absorbance 300 nm; at 38.4 µM (top of the series) unless noted
Chain of UniProt C7C422 (C7C422 whole entry, looked up): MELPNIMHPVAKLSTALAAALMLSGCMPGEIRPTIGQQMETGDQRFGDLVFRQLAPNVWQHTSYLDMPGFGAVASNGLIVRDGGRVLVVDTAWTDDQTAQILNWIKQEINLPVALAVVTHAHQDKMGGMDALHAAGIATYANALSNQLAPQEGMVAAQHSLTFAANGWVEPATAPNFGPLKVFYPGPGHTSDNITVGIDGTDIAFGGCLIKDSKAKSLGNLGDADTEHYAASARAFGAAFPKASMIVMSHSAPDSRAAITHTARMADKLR
Method in brief: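 Hydrolysis by 2 nM NDM-1 was followed by absorbance after >30 min compound preincubation in HEPES pH 7.0 buffer with 1 uM Zn2SO4. For nitrocefin (16.7 uM, 15 min, 485 nm) and meropenem (50 uM, 30 min, 300 nm), each substrate ran on separate plates.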

Activity change, negative = inhibition, inactive:
O=C(NC(c1ccccc1)c1ccccc1)c1cnc2c(c1)N(C(=O)Cc1ccc(O)cc1)CCC2 1.04%, O=C(NC1CCCCC1)N1C[C@@H]2C[C@H](C1)c1c(NS(=O)(=O)c3cccc(F)c3)ccc(=O)n1C2 -0.314%, CC(=O)N1CCC(Oc2ccccc2-c2nc(-c3ccccc3)no2)C1 (stereo unspecified) -2.41%, O=C(N[C@H]1[C@H](O)[C@H](O)C[C@@H]1c1cccnc1)c1ccccn1 0.957% [at 57.5 µM], O=C(O)c1cc(-c2cccc(CO)c2)cc(S(=O)(=O)N2CCOCC2)c1 1.88%, C[C@H]1[C@@H]2[C@@H](O)C([C@H](C)C(=O)NCc3cccs3)CC[C@@]2(C)CC[C@@H]1NC(=O)c1cncnc1 (stereo partly specified) 0.658%, O=C(Cc1csc(-c2ccccc2)n1)N1CCCC(c2ccn[nH]2)C1 (stereo unspecified) 0.665%, CC(C)N[C@@H]1CO[C@H](CNC(=O)c2ccncc2)[C@H]1O 1.12% [at 76.7 µM], COc1ccc(C[C@H](NC(=O)C2=C[C@@H](NC(=O)c3ccc(OC)cc3)[C@@H](O)[C@H](O)C2)C(N)=O)cc1 1.02%, CN1C(=O)C(CC(=O)N2CCCNCC2)(Cc2ccccc2)c2ccccc21 (stereo unspecified) 3.04%, COCc1ccc(C(=O)N2CC[C@@H](c3ccc4c(c3)OCO4)[C@H](O)C2)o1 -4.01%, CCNC(=O)c1cccnc1OC1CCN(C(=O)CC)C1 (stereo unspecified) -0.695%, CCN(CC)Cc1nc(C2(O)CCN(C)CC2)cs1 0.7% [at 76.7 µM], CC(C)C[C@@H]1N[C@H](C(=O)NCc2ccccn2)Cc2c[nH]c3cccc1c23 -1.72% [at 57.5 µM], C[C@@H]1CN(C(=O)Cn2ccc(=O)[nH]c2=O)C[C@@]1(O)C1CCC1 -0.244%, CC1=C[C@@H](CNC(=O)NC2CCCCC2)[C@H](C(C)C)C[C@H]1Cc1nc2ccc(C)cc2[nH]1 -1.29% [at 57.5 µM], CC(=O)Nc1cccc(-c2ccc3c(n2)c(=O)ncn3Cc2ccccc2)c1 8.17% [at 57.5 µM], O=C(CC1CCCCC1)N1CCC2(CC1)NC(=O)N(c1ccc(F)cc1)N2 -0.975%, CC(C)(C)CC(=O)NC[C@H]1OC[C@@H](NC2CCNCC2)[C@@H]1O 52.3% [at 57.5 µM], Cc1cc2c(cc1C(=O)N1CCC(O)(C(=O)O)CC1)OCCO2 6.93%, CSCCCN1CCC(Oc2ccc3ncccc3c2)(C(=O)O)CC1 7.88%, CS(=O)(=O)N[C@H]1C[C@H]2C(=O)Nc3ccc(-c4cccc(C(F)(F)F)c4)cc3C(=O)N2C1 3.8%, Fc1ccccc1Nc1cnc2ccc(-c3ccccc3)nn12 14.8% [at 57.5 µM], CC(C)N1CC[C@@H]2[C@H]1C(=O)NC[C@H](CCC(=O)N1CCC(O)CC1)N2C 1.52% [at 57.5 µM], OC1(CNCc2nc(-c3ccncc3)n[nH]2)CNCCOC1 (stereo unspecified) 21.5%, O=C(NC[C@H]1Cn2ccnc2CO1)C1CCCC1 -1.56% [at 76.7 µM], COc1ccc(C(=O)NCc2nnc3c(-c4nc(C5CC5)no4)cccn23)c(C)c1 9.03%, O=C1CCC2(CCCO2)CCN1Cc1ccccc1 (stereo unspecified) 0.271%, O=C(Cc1c[nH]c2ncc(-c3cccnc3)cc12)NCCc1ccccn1 24.8% [at 57.5 µM], O=C(C[C@@H]1O[C@H](CNC(=O)c2ccco2)[C@@H](O)[C@H]1O)NCc1ccc(F)cc1 65.1% [at 57.5 µM], COCCNC(=O)[C@@H]1CCC[C@@H](NC(=O)C2CC2)CN(C)C(=O)C1 1.87% [at 57.5 µM], COc1cccc(F)c1C(=O)N1C[C@H](N)C[C@H]1C(=O)NC(C)C 0.612%, CN1C(=O)CCC2(CNC(=O)c3ccco3)CCC=C12 (stereo unspecified) -0.938%, COc1cccc(NC(=O)N[C@H]2[C@H](O)[C@@H](N3CCN(c4ccccc4)CC3)[C@@H]3OC[C@H]2O3)c1 0.104%, O=C(c1ccc(N2CC3CC(C2)[C@H]2CCCC(=O)N2C3)nc1)N1CCN(c2cccc(Cl)c2)CC1 (stereo partly specified) 5.83%, COc1cccc(CN2CCNc3cnc(Nc4ccccc4)cc3C2)c1 9.38% [at 57.5 µM], O=C(Cc1c[nH]c2ncc(-c3cccnc3)cc12)NC1CCC1 15.2% [at 57.5 µM], O=C(Cc1c[nH]c2ncc(-c3ccccc3)cc12)Nc1cccnc1 0.427% [at 57.5 µM], COc1ccc2c(c1)CCN=C2C[C@H]1CN(C(=O)c2cccs2)CC[C@H]1CC(=O)O 16.1% [at 57.5 µM], COc1ccc(C(=O)Nc2nc3c(s2)C[C@@H]2[C@](C)(CO)[C@H](O)CC[C@@]2(C)[C@@H]3CC(=O)NC2CCCC2)cc1 8.72%, COc1ccc([C@@H](NC(=O)c2ccc3cccc(F)c3n2)C2CC(O)C2)cn1 (stereo partly specified) 3%, CSCC(=O)N[C@H]1CCN2C(=O)c3cc(-c4ccccc4F)ccc3NC(=O)[C@H]12 -2.09% [at 57.5 µM], CN1CCC(NC[C@H]2O[C@@H](CO)[C@@H](O)[C@H]2N2CCN(c3ncccn3)CC2)CC1 73%, CC1(CCCCc2ccccc2)COc2ccc(C(=O)Nc3cccnc3)cc2N1 (stereo unspecified) 2.61% [at 57.5 µM], CCOCCn1nc(C)cc1C(=O)N1C[C@@H](C)[C@](O)(C2CC2)C1 -1.17%, NCc1cc(NC(=O)c2ccccn2)cc(C(=O)N2CC[C@H]3CNC[C@H]32)c1 0.619%, O=C(Cc1c[nH]c2ncc(-c3ccccc3)cc12)NC1CCOCC1 4.6% [at 57.5 µM], Cc1cccc(CN2CCCC3(CCN(Cc4cccc(O)c4)C3)C2)c1 (stereo unspecified) 1.21%, COc1ccc(C[C@H](NC(=O)C2=C[C@@H](NC(=O)CSCC(=O)O)[C@@H](O)[C@H](O)C2)C(N)=O)cc1 -3.01%, Fc1ccc(NC(=S)N[C@H]2CO[C@H]3[C@@H]2OC[C@@H]3n2nnnc2-c2ccc3c(c2)OCO3)cc1 2.33%, CN(Cc1ccccc1)Cc1cn([C@H]2CO[C@H]3[C@@H]2OC[C@@H]3NCC2CCCCC2)nn1 0.56% [at 57.5 µM], COC(=O)[C@H](Cc1ccc(OC)cc1)NC(=O)[C@H]1CN(C(=O)c2cccnc2)CCN1S(C)(=O)=O -2.32%, COc1cccc(N2CCN(C(=O)c3cn4ccnc(-c5ccccc5)c4n3)CC2)c1 22.8%, COc1c(F)cccc1C(=O)N1CCc2onc(-c3ccccc3F)c2C1 -0.466%, Cc1noc2c(-c3cccnc3NCc3cnccn3)cc(-c3ccccc3)nc12 2.22% [at 57.5 µM], O=C(NCc1nc(-c2ncccn2)no1)C1CC2(CCNCC2)CN1 (stereo unspecified) 14.1%, O=C(Nc1cccc(C(F)(F)F)c1)N[C@H]1CO[C@H]2[C@@H]1OC[C@@H]2Nc1nccc(-c2ccc(-c3ccccc3)cc2)n1 5.74%, CC(=O)N1CCCCC1c1nc(-c2ccccc2)n[nH]1 (stereo unspecified) -0.619%, C=CCN(C)C(=O)C[C@@H]1c2nc(NC(=O)c3cccs3)sc2C[C@@H]2[C@](C)(CO)[C@H](O)CC[C@]21C 12.1%, COC[C@H]1CCCN1Cc1nc(C2(O)CCN(Cc3ccccc3C(F)(F)F)CC2)cs1 1.02%, Cc1ccc2c(n1)N(C)[C@H](CO)CCN(Cc1cccnc1)C2 3.46% [at 57.5 µM], O=C(Cc1ccc(Cl)cc1)N1CCC([C@@H]2CNC[C@H]2CO)CC1 2.9%, C[C@@H](NC(=O)N1CCOC[C@H]1c1ncc(-c2ccc(F)cc2)[nH]1)c1ccccc1 -0.215% [at 57.5 µM], C[C@@H]1CN(C(=O)c2cccc(-c3ncc[nH]3)c2)CC[C@@]1(O)C1CCOCC1 7.88%, COc1cccc(-c2cccc(CCOc3cnc4c(ccn4CC(=O)O)c3)c2)c1 9.46% [at 57.5 µM], NC(=O)c1ccc(-c2ncc3cnc(-c4cccc(F)c4)cn23)cc1 33.6% [at 57.5 µM], CN(C)CCCNC(=O)C1CCCN(S(=O)(=O)c2ccccc2)CCC(=O)NCC1 (stereo unspecified) -2.89%, COc1ccccc1C(=O)Nc1ccnn1C1CCN(C(=O)CCN)CC1 41.4%, CCOC(=O)C1CCN(C(=O)c2ccc3c(c2)N(CC)C2CCCCCN2C3=O)CC1 (stereo unspecified) 1.8%, CC1=C[C@@H](CN2CCN(CCO)CC2)[C@H](C(C)C)C[C@H]1Cc1nnc(-c2ccccc2F)o1 -1.28%, O=C(N[C@@H]1COCC[C@H]1OCc1ccccn1)c1cnc(C2CC2)nc1 1.45%, O=C(c1ccc(Cn2cccn2)o1)N1CCCC2(CCC(=O)N(C3CC3)C2)C1 (stereo unspecified) 0.608%, CC(=O)N1CCC(NC[C@H]2COCc3nc4ccc(C)cc4n32)CC1 -2.61% [at 57.5 µM], COc1ccc(-c2cnc(Nc3cccc(N[S+](C)(=O)[O-])c3)c3c2CCO3)cn1 7.43% [at 57.5 µM], CCc1nc(C)c(C(=O)N2CCC(c3[nH]ncc3-c3ccccc3C)CC2)o1 0.649%, Cc1oc(C(O)c2ccccc2)nc1C(=O)Nc1ccncc1 (stereo unspecified) 4.17% [at 57.5 µM]
